Measured values as given in PMC12136788.
This is one part of the list.

T1: UNK ZnF1-6 (called full-length) (human, UniProt Q9C0B0 30-357)
T1 sequence: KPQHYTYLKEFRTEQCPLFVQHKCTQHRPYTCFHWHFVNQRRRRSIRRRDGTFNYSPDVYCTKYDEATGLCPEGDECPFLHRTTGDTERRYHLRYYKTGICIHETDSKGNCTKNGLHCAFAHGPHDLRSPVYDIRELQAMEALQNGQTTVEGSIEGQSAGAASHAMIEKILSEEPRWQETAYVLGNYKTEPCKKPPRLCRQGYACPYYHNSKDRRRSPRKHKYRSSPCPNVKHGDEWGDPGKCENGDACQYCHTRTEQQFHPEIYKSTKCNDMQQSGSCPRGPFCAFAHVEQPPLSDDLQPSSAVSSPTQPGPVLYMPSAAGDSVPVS

B1: chr22:21763623:21763656:-|3pUTR|ENSG00000100030|msi1_unk|total|mutant (ssRNA)
RNA: GGGAGUUCUACAGUCCGACGAUCGUGCUUCCGUCUCCGGAAUCCUUGGGGAGCACUUGUCCACGUCUUUUCUCAUAUCAUGGCCGUCACUAACAUAUAUAAGGUAUGUGCUAUUGGCCCAGCUUUCCGAAAAUGCAGUCAUUUCAACAGAGGAUUGAGCAUCA
B2: chr2:213007362:213008084:-|CDS|ENSG00000030419|control|control|control (ssRNA)
RNA: GGGAGUUCUACAGUCCGACGAUCCAAUGGAGAAGGAGAACAGAUUAGGGCCUUCAAGUGUGAGCACUGCCGAGUCCUUUUCCUAGACCAUGUCAUGUACACCAUUCACAUGGGUUGCCAUGGCUACCGGGACCCACUGGAAUGCAACAGAGGAUUGAGCAUCA
B3: ENSG00000198589:be:win_4801|CDS|ENSG00000198589|bound_else_gene|NA|bound_elsewhere_windowed (ssRNA)
RNA: GGGAGUUCUACAGUCCGACGAUCCGAAGGAGGGACUCAGGCAUUGGGGAAGAAACAGCCACUGGUUUAGGAAGCCAUGUGGAAGUAACUCCUCACACAGCACCUCCUGGUGUCAGUGCAGGCCCAGAUGCAAUCAGCGAGGUGCAACAGAGGAUUGAGCAUCA
B4: ENSG00000198589:be:win_9201|3pUTR|ENSG00000198589|bound_else_gene|NA|bound_elsewhere_windowed (ssRNA)
RNA: GGGAGUUCUACAGUCCGACGAUCACCAUUUUUUCCUGAUCUGUCAUCUUCAUAGCACAACAAAACGAAAUGAUGGAAAUGCUCUUGAGCUCACAACAUUUGUUUUUCUUUUAAAGUAAAUGCAAGUACCAAAGCUCACUACUGCAACAGAGGAUUGAGCAUCA
B5: chr1:235113809:235113910:-|CDS|ENSG00000173726|msi1_unk|total|mutant (ssRNA)
RNA: GGGAGUUCUACAGUCCGACGAUCAGGCUUUUCAGGUUACAUGUAAUUUUAUGUAAAUCUUACAGGUGAAUAUGAGAAGGGCGCCGACCAUCUGACAAAUGCAAUUGCUGUGUGUGGACAGCCACAGCAGUUACUGCAGGUCUUCAACAGAGGAUUGAGCAUCA
B6: chr17:73284618:73284719:-|3pUTR|ENSG00000179604|msi1|total|mutant (ssRNA)
RNA: GGGAGUUCUACAGUCCGACGAUCGGGCACUCGCUCAGUCCCCCGGGGCUUGUUUGUUCUUUAUUAUUGUGUUUAAAUCCUUACCGAGCAAUAUCAGGAUGGUGUUAACCGGUCUGCCUCAGAAUGAGAAUCAAUCCUUUCCGACAACAGAGGAUUGAGCAUCA
B7: chr20:62294722:62294823:+|3pUTR|ENSG00000130703|unk|FALSE|unique (ssRNA)
RNA: GGGAGUUCUACAGUCCGACGAUCCGCACACCGCGUCCGUGUCUCCAGGGGGUUCCUUUCUUCUCACACGUCGCGUGUACCCAUAGCACUCUUGUGUUUCUGUUUUUCCCAGUAUGCAUGUUUAAAAUAGAAGUGACAAGAAUCCAACAGAGGAUUGAGCAUCA
B8: chr4:38700566:38700667:+|3pUTR|ENSG00000109787|unk|total|mutant (ssRNA)
RNA: GGGAGUUCUACAGUCCGACGAUCUACAAAGCCAUCUUUACAUGCAUUAAACGAGGGCUACAACAAUAUUGUUUUACAAAUACCCGCACUUUUUUUUCUGUUAUGUACUCCGUGUCCGAGGGUCAAAAUAAUCUUUCUGCUCCGCAACAGAGGAUUGAGCAUCA
B9: chr6:157944353:157944454:+|3pUTR|ENSG00000130340|unk|total|mutant (ssRNA)
RNA: GGGAGUUCUACAGUCCGACGAUCAGUAAUUCUCCCCACUUGAUUUUUCUUCUAUAAAAUCCCACCGAACAAUGUUUAUGCUACCGCCAUUUAAUAUAUGUACAAAUUGUAAAGAAUAUGUAUAAAUGUUUUACACGAAUGUAACAACAGAGGAUUGAGCAUCA
B10: chr8:65724783:65724899:-|CDS|ENSG00000205268|unk|total|mutant (ssRNA)
RNA: GGGAGUUCUACAGUCCGACGAUCACCGGUGCUCUGAUACCCGCCACAGACAUCAGUCGCCAGAAUGAGUAUCUGUCUUUGUUCCGGUCCCAUUUGGACCGAGGUGAUUUAUGCCCCGAAGACACCAGACACAGACAUUUGGUUCAACAGAGGAUUGAGCAUCA
B11: chr2:128192346:128192447:+|3pUTR|ENSG00000136731|msi1|FALSE|unique (ssRNA)
RNA: GGGAGUUCUACAGUCCGACGAUCAGAAAAUGAUGUUACCACUAAAAUAUUUUCUCCAAGAAGGCAUACUGUAACAGAAAAGAUAGGUAAGAUAUUUUUUUCCCAAGAAGUAAGAAUUGAUUGUGCUGAAUGUUCAAACUCUGGCAACAGAGGAUUGAGCAUCA
B12: chr19:21059139:21059240:+|3pUTR|ENSG00000118620|unk|total|mutant (ssRNA)
RNA: GGGAGUUCUACAGUCCGACGAUCGUAAAAAUGAAAAUAUUUAAUCCAAAAUUAAGUCUAUGUAAAUAUCAGAGAAUUUACUGCCGAAAUAUAUAAGGCACUGAGACUUCAGAUAUUAUACUAAAUCAGAGUGCUGAGUACCGACAACAGAGGAUUGAGCAUCA
B13: chr7:20410991:20411126:+|3pUTR|ENSG00000105855|msi1|total|mutant (ssRNA)
RNA: GGGAGUUCUACAGUCCGACGAUCAAAUUCUGCCUCAAGCAAAGUACCACAUUUUGAAUGUUUUCUCCGAUUUUGAUUGCAAGCCGAUAUCAGCAUUUUUUAAAUGAAAAGCUAUAUUAUCUUCUCCCUUCAAGGCAGCCUAAGCAACAGAGGAUUGAGCAUCA
B14: chr17:74695098:74695251:-|CDS|ENSG00000186074|control|control|control (ssRNA)
RNA: GGGAGUUCUACAGUCCGACGAUCUCUCUGACCUUGGGUGCUGAGGAUCAGGAACCGACCUACUGCAACAUGGGCCACCUCAGUAGCCACCUCCCCGGCAGGGGCCCUGAGGAGCCCACGGAAUACAGCACCAUCAGCAGGCCUCAACAGAGGAUUGAGCAUCA
B15: chr12:6238111:6238124:+|3pUTR|ENSG00000010278|msi1_unk|FALSE|overlapping (ssRNA)
RNA: GGGAGUUCUACAGUCCGACGAUCUGUUUGUUUUUGCUUGUUAUAUUAAGCAGAAAUCCUGCAAUGAAAGGUACUAUAUUUGCUAGACUCUAGACAAGAUAUUGUACAUAAAAGAAUUUUUUUGUCUUUAAAUAGAUACAAAUGCAACAGAGGAUUGAGCAUCA
B16: chr1:89933607:89933717:+|CDS|ENSG00000171492|unk|FALSE|bound_elsewhere (ssRNA)
RNA: GGGAGUUCUACAGUCCGACGAUCCAACUUUUGGUUCAAAUAUCCCAAAACAUGCUCAAAAGUAGAACAUUUUGUUUCAAUAUUAGGAAAGUGCUUUGAAUCCCCUUGGACGACAAAAGCGUUGUCUGAGACAGCAUGCGAAGACAACAGAGGAUUGAGCAUCA
B17: chr3:41225653:41225883:+|CDS|ENSG00000168036|unk|total|mutant (ssRNA)
RNA: GGGAGUUCUACAGUCCGACGAUCCAUUACAACUCUCCACAACCUUUUAUUACAUCAAGAAGGAGCUAAAAUGGCAGUGCGUUCCGCUGGUGGGCUGCAGAAAAUGGUUGCCUUGCUCAACAAAACAAAUGUUAAAUUCUUGGCCAACAGAGGAUUGAGCAUCA
B18: chr8:28970260:28970371:+|CDS|ENSG00000147421|unk|FALSE|unique (ssRNA)
RNA: GGGAGUUCUACAGUCCGACGAUCUCUUCCUCUACAGCUACAGCUUCCACACAGACGCAGCAUUCGGGAAUGUCCCCGUCACCUAGCAACAGUUAUGAUACUUCCCCACAGCCUUGCACUACCAAUCAAAAUGGGAGGGAGAAUCAACAGAGGAUUGAGCAUCA
B19: chr8:42175261:42175472:-|3pUTR|ENSG00000104368|msi1|total|mutant (ssRNA)
RNA: GGGAGUUCUACAGUCCGACGAUCGUAUUCCUUUUGUGUACAGUGUGUAAAGUGUAAAUCCUUUUUCUUUAUAAACUUCCGAGCCGCAUGAGAGAAUUGUAUCAUUUGAACAACCCGGCUUCAGCAUAUUUACCGCAAUCCAUGCAACAGAGGAUUGAGCAUCA
B20: ENSG00000114062:stop:overlap|stop_codon|ENSG00000114062|stop_codon|NA|stop_codon (ssRNA)
RNA: GGGAGUUCUACAGUCCGACGAUCUGGGAGGACUAGGAAAAUUAAAGAUGAUUAUAGCCAAAAAUGGCCCAGACACAGAAAGGUAGGUAAUUAUUAACUUGUGACUGUAUACCUACCGAAAACCUUGCAUUCCUCGUCACAUACCAACAGAGGAUUGAGCAUCA
B21: chr1:9729132:9729211:-|3pUTR|ENSG00000171603|msi1_unk|FALSE|overlapping (ssRNA)
RNA: GGGAGUUCUACAGUCCGACGAUCUAGUUCUGAGGACACUGGUGGCUGUGCUAUGUGUGGCCAUCCUCCAUGUCCCGUCCCUGUAGCUGCUCUGUUUAGACAGCGGACAGACGCUCACGCCCAGGGGAUGUCCUCACGCUGUCGCAACAGAGGAUUGAGCAUCA
B22: ENSG00000100034:stop:overlap|stop_codon|ENSG00000100034|stop_codon|NA|stop_codon (ssRNA)
RNA: GGGAGUUCUACAGUCCGACGAUCGGAGGCAGGACUUGCCCUCCAGCCUUCCAGAACCUGAGACCCAGGCUCCACCAAGAAGCUAGGUGGUUUCCAGGCCCCUGCCCUCCCCUUCCUCCCAUCCUUGUCCUUCUCUCCCUCAGACAACAGAGGAUUGAGCAUCA

The binders below were run against T1, UNK ZnF1-6 (called full-length) (assay: nsRBNS (natural sequence RNA bind-n-seq); RBNS binding buffer (assumed for nsRBNS): 25 mM Tris pH 7.5, 150 mM KCl, 3 mM MgCl2, 0.01% Triton X-100, 500 ug/ml BSA, 20 U/ml SUPERase-In, 4 C; UNK is unkempt and MSI1 is Musashi-1; names of the RNAs are library labels; protein concentration not given here; high values mean tight binding).

Question: B1 was tested. Which binding signal did it give?
Answer: The binding signal was 0.484 enrichment R.

Question: For B2, which binding signal is on record?
Answer: The binding signal was 1.2 enrichment R.

Question: With B3 as the binder, how does the binding signal read?
Answer: The binding signal was 0.655 enrichment R.

Question: With B4 as the binder, how does the binding signal read?
Answer: The binding signal was 0.481 enrichment R.

Question: For B5, which binding signal is on record?
Answer: Its binding signal is 0.355 enrichment R.

Question: For B6, which binding signal is on record?
Answer: Its binding signal is 0.674 enrichment R.

Question: B7 was tested. Which binding signal did it give?
Answer: Its binding signal is 0.624 enrichment R.

Question: Which binding signal does the source give for B8 here?
Answer: The binding signal was 0.49 enrichment R.

Question: For B9, which binding signal is on record?
Answer: The binding signal was 0.493 enrichment R.

Question: How did the binding signal turn out when B10 was run?
Answer: Its binding signal is 0.452 enrichment R.

Question: With B11 as the binder, how does the binding signal read?
Answer: Its binding signal is 0.563 enrichment R.

Question: Which binding signal does the source give for B12 here?
Answer: Its binding signal is 0.9 enrichment R.

Question: B13 was tested. Which binding signal did it give?
Answer: The binding signal was 0.367 enrichment R.

Question: B14 was tested. Which binding signal did it give?
Answer: The binding signal was 0.585 enrichment R.

Question: For B15, which binding signal is on record?
Answer: The binding signal was 0.632 enrichment R.

Question: For B16, which binding signal is on record?
Answer: Its binding signal is 0.843 enrichment R.

Question: For B17, which binding signal is on record?
Answer: The binding signal was 0.601 enrichment R.

Question: With B18 as the binder, how does the binding signal read?
Answer: The binding signal was 0.928 enrichment R.

Question: With B19 as the binder, how does the binding signal read?
Answer: The binding signal was 0.316 enrichment R.

Question: With B20 as the binder, how does the binding signal read?
Answer: The binding signal was 0.642 enrichment R.

Question: With B21 as the binder, how does the binding signal read?
Answer: Its binding signal is 0.611 enrichment R.

Question: For B22, which binding signal is on record?
Answer: The binding signal was 1.37 enrichment R.
